# Source: article PMC4336329 (PLoS ONE, 2015)
# Hit rate of the full screen: of about 310,000 compounds, about 2,200 (0.71%) showed an effect of 50% or more. Effects have a minus sign here. Some of the results follow.
# Target: human ether-à-go-go-related gene (hERG) potassium channel (human, UniProt Q12809)
# Experiment: primary screen, population patch clamp on CHO cells stably expressing hERG
# Chain of human ether-à-go-go-related gene (hERG) potassium channel (Q12809 whole entry, looked up): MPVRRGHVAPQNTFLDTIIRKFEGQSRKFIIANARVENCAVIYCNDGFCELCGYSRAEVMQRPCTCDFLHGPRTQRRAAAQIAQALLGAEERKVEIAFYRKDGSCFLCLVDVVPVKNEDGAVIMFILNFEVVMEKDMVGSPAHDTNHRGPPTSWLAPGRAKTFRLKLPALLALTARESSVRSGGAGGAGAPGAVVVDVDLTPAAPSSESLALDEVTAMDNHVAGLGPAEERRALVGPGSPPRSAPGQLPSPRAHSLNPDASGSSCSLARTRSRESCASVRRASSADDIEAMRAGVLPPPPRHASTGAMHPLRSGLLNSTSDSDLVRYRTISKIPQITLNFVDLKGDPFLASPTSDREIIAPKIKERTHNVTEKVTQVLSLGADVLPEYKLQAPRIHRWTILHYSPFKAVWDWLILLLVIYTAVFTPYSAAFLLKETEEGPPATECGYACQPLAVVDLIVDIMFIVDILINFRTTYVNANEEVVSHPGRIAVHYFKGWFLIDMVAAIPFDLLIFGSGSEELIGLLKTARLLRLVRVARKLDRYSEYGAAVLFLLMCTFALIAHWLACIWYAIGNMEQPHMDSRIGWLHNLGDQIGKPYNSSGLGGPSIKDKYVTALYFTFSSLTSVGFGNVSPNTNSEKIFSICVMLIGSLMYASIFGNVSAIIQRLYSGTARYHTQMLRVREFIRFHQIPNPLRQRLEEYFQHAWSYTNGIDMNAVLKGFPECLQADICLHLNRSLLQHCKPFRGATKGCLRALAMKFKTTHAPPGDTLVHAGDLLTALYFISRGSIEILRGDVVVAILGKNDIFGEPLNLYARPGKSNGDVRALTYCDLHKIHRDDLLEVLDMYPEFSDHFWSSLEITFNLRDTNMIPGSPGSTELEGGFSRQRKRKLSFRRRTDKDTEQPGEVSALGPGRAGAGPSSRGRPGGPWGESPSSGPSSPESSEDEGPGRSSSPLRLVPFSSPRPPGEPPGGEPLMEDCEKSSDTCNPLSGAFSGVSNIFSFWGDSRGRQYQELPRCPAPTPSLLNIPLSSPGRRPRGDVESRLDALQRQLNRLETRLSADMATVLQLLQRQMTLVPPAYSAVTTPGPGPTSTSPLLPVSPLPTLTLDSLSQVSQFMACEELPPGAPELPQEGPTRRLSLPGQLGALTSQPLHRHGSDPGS
row,SMILES,"hERG current change (%, negative = inhibition) at 1uM [%]"
1,CC(C)C[C@@H](CO)N1CCN(C)CCC1=O,1.94
2,CN(C)CCCNS(=O)(=O)c1cc(Cl)ccc1Cl,14.2
3,CC(C)(C)NC(=O)CN(Cc1ccco1)C(=O)CCC(=O)Nc1nccs1,12.2
4,CN(C)c1ccc(NC(=S)N2CCN(c3ncc(C(F)(F)F)cc3Cl)CC2)cc1,11.4
5,O=C(CCCN1C(=O)c2ccccc2C1=O)Nc1cccnc1,2.91
6,C=CC[n+]1ccc2ccccc2c1C.[Cl-],15.7
7,COc1ccc(N2CCN(C(CNC(=O)C(C)(C)C)c3cccnc3)CC2)cc1 (stereo not shown),-16
8,CCOc1ccc(NC(=O)NNC(=O)c2ccc3ccccc3c2O)cc1,9.28
9,Cn1c(=O)c(=O)n(C)c2cc(S(=O)(=O)NCCN3CCN(c4ccccc4F)CC3)ccc21,13
10,COc1cc(CCC(=O)Nc2ccc(Br)c(C(F)(F)F)c2)cc(OC)c1OC,10.8
11,CCN(CC(=O)NCc1cccs1)C(=O)c1ccc(S(=O)(=O)Nc2cccc(C)c2C)cc1,-12.6
12,Cc1ccc(NC(=O)c2cc(C)n(-c3cccc(C)c3)c2C)cc1,9.98
13,COc1ccc(S(=O)(=O)n2cnc3ccccc32)c(C)c1,13.1
14,COc1ccccc1C(=O)NC(=O)Nc1nc(-c2ccccc2)cc(C(F)(F)F)n1,12.8
15,O=C(CSc1nnc(Nc2ccccc2F)s1)NC1CC1,9.4
16,COc1c2ccccc2nc2ccccc12,12.9
17,COc1cc(OC)cc(-c2nnc(NC(=O)CCS(=O)(=O)c3ccccc3)o2)c1,-14.8
18,CCOC(=O)c1ccc(N(C(=O)CNC(=O)c2ccco2)C(C(=O)NCC2CCCO2)c2ccc(OC)c(OC)c2)cc1 (stereo not shown),13.8
19,O=C(NC(=S)Nc1ccc2oc(=O)ccc2c1)c1ccc(-c2cccc(Cl)c2Cl)o1,3.73
20,COc1ccc(S(=O)(=O)Nc2ccccn2)cc1,14.5
21,O=Cc1ccc(-c2cccc(C(=O)O)c2)o1,15.7
22,COc1ccc(CCN(C)CC(=O)Nc2c(C)cc(C)cc2C)cc1OC.Cl,14.4
23,Cc1nnc(NC(=O)c2ccccc2Br)s1,8.45
24,COc1ccc(Cc2nnc(SCC(=O)N(C)c3ccccc3)o2)cc1,11.6
25,O=C(CCCC(=O)NCCc1ccccc1)NCCc1ccccc1,12.1
